From the RNAGym collection of RNA variant scans (doi:10.7554/elife.90254)
Read counts are not given, so values of variants with three or more changes are uncertain.

B1: OR4K15 (parent)
chain: GUUAACGGUCAUAGGCCAUGGAAACUAGGAGCACCAUUUCGCUGCCAGUGAAGAAAUGAACAAAGAAAAUCUGGGCCAGGCAGGCAUCAAAAGAAAUAGUCUUGCGCUCAACCAGAAAGUCUGUAAUCAUUUUAAGGGUA

Variants of: B1
Experiment: self-cleavage, relative activity (ratio to wild type); higher = more cleavage; in vitro, sequencing; the parent is a self-cleaving ribozyme

| Variant | self-cleavage |
| --- | --- |
| GUUAACGGUCAUAGGCCAUGGAAGCUAGGAGCGCCAUUUCGCUGCCAGAGAAGAAAUGAACAAAGAAAACCUGGGCCAGGCAGGCAUCAAAAGAAAUAGUCUUGCGCUCAACCAGAAAGUCUGUAAUCAUUUUAAGGGUA [A24G A33G U49A U70C] | 0.49 |
| GUUAACGGUCAUAGGCCAUGGAAGCUAGGAGCCCCAUUUCGCUGCCAGUGAAGAAGUGAACAAAGAAAAUCUGGGCCAGGCAGGCAUCAAAAGAAAUAGUCUUGCGCUCAACCAGAAAGUCUGUAAUCAUUUUAAGGGUA [A24G A33C A56G] | 0.44 |
| GUUAACGGUCAUAGGCCAUGGAAGCUAGGAGCACCAUUUCGCUGCCUGCGAAGAAAUGAACAAAGAAAAUCUGGGCCAGGCAGGCAUCAAAAGAAAUAGUCUUGCGCUCAACCAGAAAGCCUGUAAUCAUUUUAAGGGUA [A24G A47U U49C U120C] | 0.28 |
| GUUAACGGUCAUAGGCCAUGGAAGCUAGGGGCACCAUUUCGCUGCCAGUGAAGAAAUGAACAACGAAAAUCUGGGCCAGGCAGGCAUCAAAAGAGAUAGUCUUGCGCUCAACCAGGAAGUCUGUAAUCAUUUUAAGGGUA [A24G A30G A64C A95G A116G] | 0.66 |
| GUUAACGGUCAUAGGCCAUGGAAGCUAGGAGCACCAUUUCGCUGCCAGUGACGAAAUGAACAAAGAAAAUCUGGGCCAGGCGGGCAUCAAAAGAAAUAGUCUUGCGCUCAACCAGAAAGUCUGUAAUCAUUUUAAGGGUA [A24G A52C A82G] | 0.23 |
| GUUAACGGUCAUAGGCCAUGGAAGCUUGGAGCACCAUUUCGCUGCCAGUGAAGAAAUGAACAAAGAAAAUCUGGGCCAGGCAGGCACCAAAAGAAAUAGUCUUGCGCUCAACCAGAAAGUCUGUAACCAUUUUAAGGGUA [A24G A27U U87C U127C] | 0.23 |
| GUUAACGGUCAUAGGCCAUGGAAGCUAGGAGCGCCAUUUCGCUGCCAGUGAAGAAAUGAACAAAGAAAAUCUGGGCCAGGCAGGCAUCAAAAGAAAUAGUCCUGCGCUCAACCAGAAAGUCUGUAAUCAUUUUAAGGGUA [A24G A33G U102C] | 1.11 |
| GUUAACGGUCAUAGGCCAUGGAAGCUAGGAGCACCAUUUCGCUGCCAGUGACGGAAUGAACAAAGAAAAUCUGGGCCAGGCAGGCAUCAAAAGAAAUAGUCUUGCGCUCAACCAGAAAGUCUGUAAUCAUUUUAAGGGUA [A24G A52C A54G] | 0.94 |
| GUUAACGGUCAUAGGCCAUGGAAGCUAGGAGCGCCACUUCGCUGCCAGUGAAGAAAUGAACAAAGAAAAUCUGGGCCAGGCAGGCAUCAAAAGAAAUAGUCUUGCGCUCAGCCAGAAAGUCUGUAAUCAUUUUAAGGGUA [A24G A33G U37C A111G] | 0.08 |
| GUUAACGGUCAUAGGCCAUGGAAGCUUGGAGCACCAUUUCGCUGCCAGUGAAGAAAUGAAUAAAGAAAAUCUGGGCCAGGCAGGCAUCAAAAGAAAUAGUCUUGCGCUCAACCAGAAAGUCUGUAAUCAUUUUAAGGGUU [A24G A27U C61U A140U] | 2.44 |
| GUUAACGGUCAUAGGCCAUGGAAGCUAGGGGCACCAUUUCGCUGCCCGUGAAGAAAUGAACAAAGAAAAUCUGGGCCAGGCAGGCAUCAAAAGAAAUAGUCUUGCGCUCAACCAGAAAGUCUGUAAUCAUUUUAAGGGUA [A24G A30G A47C] | 1 |
| GUUAACGGUCAUAGGCCAUGGAAGCUAGGAGCACCGUUUCGCUGCCAGUGAAGAAAUGAACAAAGAGAAUCUGGGCCAGGCAGGCAUCAAAAGAAAUAGUCUUGCGCUCAACCAGAAAGUCUGUAAUCAUUUUAAGGGUA [A24G A36G A67G] | 0.93 |
| GUUAACGGUCAUAGGCCAUGGAAGCUAGGGGCACCAUUUCGCUGCCAGUGAAGGAAUGGACAAAGAAAAUCUGGGCCAGGCAGGCAACAAAAGAAAUAGUCUUGCGCUCAACCAGAAAGUCUGUAAUCAUUUUAAGGGUA [A24G A30G A54G A59G U87A] | 1.64 |
| GUUAACGGUCAUAGGCCAUGGAAGCUAGGAGCACCAUUUCGCUGCCAGUGAGGAAAUGAACAAAGAAAAUCUGGGCCAGGCGGGCAUCAAAAGAAGUAGUCUUGCGCUCAACCAGAGAGUCCGUAAUCAUUUUAAGGGUA [A24G A52G A82G A96G A117G U122C] | 0.28 |
| GUUAACGGUCAUAGGCCAUGGAAGCUAGGCGCACCAUUUCGCUGCCAGUGAAGAAAUGAACAAAGAAAAUCUGGGCCAGGCAGGCAUCAAAAGAGAUAGUCUUGCGCUCAACCGGAAAGUCUGUAGUCAUUUUAAGGGUA [A24G A30C A95G A114G A126G] | 0.15 |
| GUUAACGGUCAUAGGCCAUGGAAGCUAGGAGCGCCAUUUCGCUGCCAGUGAAGGAAUGAACAAAGAAAAUCUGGGCCAGGCAGGCAUCAAAAGAAAUAGUCUUGCGCUCAACCAGAAAGUCUGUAAUCAUUUUAAGGGUA [A24G A33G A54G] | 0.73 |
| GUUAACGGUCAUAGGCCAUGGAAGCUAGGAGCACCCUUUCGCUGCCAGUGAAGAAAUGAACAAAGAAAAUCUGGGCCAGGCAGGCAUCAAAAGAAAUAGUCUUGCGCUCAACCAGAAAGUCUGUAAUCAUUUUAAGGGCA [A24G A36C U139C] | 1.5 |
| GUUAACGGUCAUAGGCCAUGGAAGCUAGGAGCACCAUUUCGCUGCCAGUGAGGAAAAGAACAAAGAAGAUCUGGGCCAGGCAGGCAUCAAAAGAAAUAGUCUUGCGCUCAGCCAGAAAGUCUGUAAUCAUUUUAAGGGUA [A24G A52G U57A A68G A111G] | 0.03 |
| GUUAACGGUCAUAGGCCAUGGAAGCUAGGAGCGCCAUUUCGCUGCCAGUGAAGAAAUGAACAAAGAAAAUCUGGGCCAGGCAGGCAUCAAAAGAAAUAGUCUUGCGCUCAACCAGAAAGUCUGUAAUCAUCUUAAGGGUA [A24G A33G U131C] | 0.92 |
| GUUAACGGUCAUAGGCCAUGGAAGCUAGGGGCACCAUUACGCUGCCAGUGAAGGAACGAACAAAGAAAACCUGGGCCAGGCAGGCAUCAAAAGAAAUAGUCUUGCGCUCAACCAGAAAGUCUGUAUUCAUUUUAAGGGUA [A24G A30G U39A A54G U57C U70C A126U] | 0.44 |
